This is an account of results in the supplement of paper PMC6609913.

In the test the test system is V-C8 (BRCA2-deficient hamster cells). Nature of the test: normalised cell viability (fraction of plate median); higher = more viable cells (less toxic). The following applies: 5 µM. The method in brief: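 Hamster V-C8 cells lacking BRCA2 and V-C8 cells with BRCA2 restored were seeded in 96-well plates. Library drugs (10 mM DMSO stocks) were added 24 h later at 5 μM in 100 μl medium, next to DMSO control wells, for 3 days (screen 1) or 6 days (screen 2). Cell viability was read by resazurin assay, median-plate normalised (modified robust per cent of sample), and triplicate wells were averaged.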

The structures appear in SMILES notation. Where a name gives a salt, the structure may show the parent alone. ± gives the standard deviation of the averaged measurements. The full ranking holds about 1,300 compounds; the median of “normalised cell viability” is about 1, and the lowest 2% start at about 0.14. The list shows a part of the results.

`CCCCc1ccc2[nH]c(NC(=O)OC)nc2c1` [Parbendazole] had a normalised cell viability (treatment time: 3 days) of 0.159 ± 0.012 and a normalised cell viability (treatment time: 6 days) of 0.189 ± 0.014.

The compound `CCc1cccc(CC)c1NC(=O)CN(CC(=O)O)CC(=O)O` [Etifenin] had a normalised cell viability (treatment time: 3 days) of 1.07 ± 0.047 and a normalised cell viability (treatment time: 6 days) of 1.04 ± 0.043.

Take `CN/C(=N\CCSCc1nc[nH]c1C)NC#N` [Cimetidine]: the normalised cell viability came out at 1.04 ± 0.068 (treatment time: 3 days) and 1.1 ± 0.021 (treatment time: 6 days).

Consider `O=C(O)c1cc(/N=N/c2ccc(S(=O)(=O)Nc3ccccn3)cc2)ccc1O` [Sulfasalazine], for which the normalised cell viability worked out at 1.03 ± 0.056 (treatment time: 3 days) and 0.993 ± 0.046 (treatment time: 6 days).

On to `CN1CCCN=C1/C=C/c1cccc(O)c1` [Oxantel pamoate], for which the normalised cell viability reads like this: (treatment time: 3 days) 1.07 ± 0.1; (treatment time: 6 days) 1.05 ± 0.077.

For `CC(N)CCCC(C)(C)O` (centres undefined) [Heptaminol hydrochloride], the normalised cell viability reads like this: (treatment time: 3 days) 0.959 ± 0.033; (treatment time: 6 days) 0.988 ± 0.069.

As for `Cc1cc2c(s1)Nc1ccccc1N=C2N1CCN(C)CC1` [Olanzapine], the normalised cell viability was 0.955 ± 0.028 (treatment time: 3 days) and 0.8962 ± 0.0033 (treatment time: 6 days).

`CC=CC1=C(C(=O)O)N2C(=O)[C@@H](NC(=O)[C@H](N)c3ccc(O)cc3)[C@H]2SC1` [Cefprozil]: the normalised cell viability runs as follows: (treatment time: 3 days) 0.99 ± 0.14; (treatment time: 6 days) 0.966 ± 0.043.

On to `Cc1c(O)c(=O)n(-c2ccccc2)n1C` [Antipyrine, 4-hydroxy], for which the normalised cell viability reads like this: (treatment time: 3 days) 1.01 ± 0.029; (treatment time: 6 days) 1 ± 0.029.

As to `CC(C)OC(=O)C(C)(C)Oc1ccc(C(=O)c2ccc(Cl)cc2)cc1` [Fenofibrate], the normalised cell viability is, setting by setting: (treatment time: 3 days) 1 ± 0.055; (treatment time: 6 days) 0.994 ± 0.025.

In turn, `COC(=O)C1=C(C#N)NC(C)=C(C(=O)OC(C)C)C1c1cccc([N+](=O)[O-])c1` (centres undefined) [Nilvadipine] came in with a normalised cell viability (treatment time: 3 days) of 0.939 ± 0.027 and a normalised cell viability (treatment time: 6 days) of 1.04 ± 0.1.

Turning to `CC1CC(OC(=O)c2ccccc2O)CC(C)(C)C1` (centres undefined) [Homosalate], the normalised cell viability (treatment time: 3 days) came out at 0.984 ± 0.17 and the normalised cell viability (treatment time: 6 days) worked out at 1.03 ± 0.044.

For `NC[C@@H]1O[C@@H](O[C@H]2[C@H](O)[C@@H](O[C@H]3O[C@H](CO)[C@@H](O)[C@H](N)[C@H]3O)[C@H](N)C[C@@H]2N)[C@@H](O)[C@H](O)[C@H]1O` [Kanamycin A sulfate], the normalised cell viability by setting is: (treatment time: 3 days) 0.965 ± 0.052; (treatment time: 6 days) 1.04 ± 0.02.

With `O=C(CCCN1CCN(c2ccccn2)CC1)c1ccc(F)cc1` [Azaperone], the normalised cell viability runs as follows: (treatment time: 3 days) 0.863 ± 0.096; (treatment time: 6 days) 0.904 ± 0.11.

Regarding `C[C@H](CCC(=O)O)[C@H]1CC[C@H]2[C@@H]3[C@@H](O)C[C@@H]4C[C@H](O)CC[C@]4(C)[C@H]3CC[C@]12C` [Urosiol], the normalised cell viability was 0.921 ± 0.017 (treatment time: 3 days) and 0.978 ± 0.039 (treatment time: 6 days).

Regarding `C#C[C@]1(O)CC[C@H]2[C@@H]3CCC4=CCCC[C@@H]4[C@H]3CC[C@@]21C` [Lynestrenol], the normalised cell viability by setting is: (treatment time: 3 days) 1.1 ± 0.046; (treatment time: 6 days) 1.12 ± 0.063.

As for `Nc1c2ccccc2nc2ccccc12` [Aminacrine], the normalised cell viability by setting is: (treatment time: 3 days) 0.127 ± 0.015; (treatment time: 6 days) 0.164 ± 0.015.

In the case of `CN1CCC(=C2c3ccccc3Sc3ccccc32)CC1` [Pimethixene maleate], the normalised cell viability stood at 0.972 ± 0.025 (treatment time: 3 days) and 1.02 ± 0.018 (treatment time: 6 days).

Compound `N[C@@H](Cc1cc(I)c(Oc2ccc(O)c(I)c2)c(I)c1)C(=O)O` [Liothyronine] registered a normalised cell viability (treatment time: 3 days) of 0.959 ± 0.036 and a normalised cell viability (treatment time: 6 days) of 0.98 ± 0.023.

As for `CN1CCN(C(c2ccccc2)c2ccccc2)CC1` [Cyclizine hydrochloride], the normalised cell viability is 1.06 ± 0.048 (treatment time: 3 days) and 1.02 ± 0.012 (treatment time: 6 days).

For `CN(c1nccc(=O)[nH]1)C1CCN(c2nc3ccccc3n2Cc2ccc(F)cc2)CC1` [Mizolastine], the normalised cell viability by setting is: (treatment time: 3 days) 1.02 ± 0.068; (treatment time: 6 days) 1.11 ± 0.1.

In turn, `O=C(O)c1ccccc1C(=O)Nc1ccc(S(=O)(=O)Nc2nccs2)cc1` [Phthalylsulfathiazole] displayed a normalised cell viability (treatment time: 3 days) of 1.04 ± 0.016 and a normalised cell viability (treatment time: 6 days) of 1.05 ± 0.091.

Turning to `OCCN(CCO)c1nc(N2CCCCC2)c2nc(N(CCO)CCO)nc(N3CCCCC3)c2n1` [Dipyridamole], the normalised cell viability is 0.991 ± 0.018 (treatment time: 3 days) and 0.992 ± 0.04 (treatment time: 6 days).

`CC(=O)CC(c1ccccc1)c1c(O)c2ccccc2oc1=O` (centres undefined) [Warfarin]: the normalised cell viability was 0.998 ± 0.043 (treatment time: 3 days) and 1.05 ± 0.019 (treatment time: 6 days).

On to `CO[C@@H]1[C@@H](O[C@@H]2O[C@H](C)[C@@H](O[C@H]3C[C@@](C)(O)[C@@H](OC(=O)CC(C)C)[C@H](C)O3)[C@H](N(C)C)[C@H]2O)[C@@H](CC=O)C[C@@H](C)[C@@H](O)/C=C/C=C/C[C@@H](C)OC(=O)C[C@H]1OC(C)=O` [Josamycin], for which the normalised cell viability reads like this: (treatment time: 3 days) 0.566 ± 0.026; (treatment time: 6 days) 0.567 ± 0.012.

As for `c1ccc2c(CC3=NCCN3)cccc2c1` [Naphazoline hydrochloride], the normalised cell viability reads like this: (treatment time: 3 days) 1.103 ± 0.0068; (treatment time: 6 days) 1.1 ± 0.026.

With `CC(=O)OCC(=O)[C@@]12OC(C)(C)O[C@@H]1C[C@H]1[C@@H]3C[C@H](F)C4=CC(=O)C=C[C@]4(C)[C@@]3(F)[C@@H](O)C[C@@]12C` [Fluocinonide], the normalised cell viability (treatment time: 3 days) was 1.01 ± 0.015 and the normalised cell viability (treatment time: 6 days) was 0.9936 ± 0.0099.

The compound `CCN(CC)CC(=O)Nc1c(C)cccc1C` [Lidocaïne hydrochloride] registered a normalised cell viability (treatment time: 3 days) of 1.02 ± 0.032 and a normalised cell viability (treatment time: 6 days) of 0.999 ± 0.03.

As to `CC(=O)NS(=O)(=O)c1ccc(N)cc1` [Sulfacetamide sodic hydrate], the normalised cell viability is, setting by setting: (treatment time: 3 days) 0.993 ± 0.045; (treatment time: 6 days) 1.06 ± 0.073.

Compound `Cc1cn([C@H]2C=C[C@@H](CO)O2)c(=O)[nH]c1=O` [Stavudine] yielded a normalised cell viability (treatment time: 3 days) of 1.05 ± 0.077 and a normalised cell viability (treatment time: 6 days) of 1.23 ± 0.35.

As to `C=CC1=C(C(=O)O)N2C(=O)[C@@H](NC(=O)/C(=N\O)c3csc(N)n3)[C@H]2SC1` [Cefdinir], the normalised cell viability was 1.016 ± 0.0043 (treatment time: 3 days) and 1.01 ± 0.06 (treatment time: 6 days).

In the case of `COc1cccc2c1C(=O)c1c(O)c3c(c(O)c1C2=O)C[C@@](O)(C(C)=O)C[C@@H]3O[C@H]1C[C@H](N)[C@H](O)[C@H](C)O1` [Daunorubicin hydrochloride], the normalised cell viability worked out at 0.141 ± 0.011 (treatment time: 3 days) and 0.124 ± 0.0055 (treatment time: 6 days).
